The Kd is a measure of binding affinity in units of concentration.

We go through nine molecules from patent US20200199241A1 (Chugai, published 2020).

B1: IgG1-F12 (antibody)
heavy: QVQLQESGPGLVKPSETLSLTCAVSGHSISHDHAWSWVRQPPGEGLEWIGFISYSGITNYNPSLQGRVTISRDNSKNTLYLQMNSLRAEDTAVYYCARSLARTTAMDYWGEGTLVTVSS[here human IgG1 constant region with M252Y N434W (EU numbers) without letters]
light: DIQMTQSPSSLSASVGDRVTITCRASQDISSYLNWYQQKPGKAPKLLIYYTSRLHSGVPSRFSGSGSGTDFTFTISSLQPEDIATYYCQQGNTLPYTFGQGTKVEIKRTVAAPSVFIFPPSDEQLKSGTASVVCLLNNFYPREAKVQWKVDNALQSGNSQESVTEQDSKDSTYSLSSTLTLSKADYEKHKVYACEVTHQGLSSPVTKSFNRGEC
notes: EU numbering; copies: 2 + 2
B2: IgG1-F26 (antibody)
heavy: QVQLQESGPGLVKPSETLSLTCAVSGHSISHDHAWSWVRQPPGEGLEWIGFISYSGITNYNPSLQGRVTISRDNSKNTLYLQMNSLRAEDTAVYYCARSLARTTAMDYWGEGTLVTVSS[here human IgG1 constant region with I332V (EU numbers) without letters]
light: DIQMTQSPSSLSASVGDRVTITCRASQDISSYLNWYQQKPGKAPKLLIYYTSRLHSGVPSRFSGSGSGTDFTFTISSLQPEDIATYYCQQGNTLPYTFGQGTKVEIKRTVAAPSVFIFPPSDEQLKSGTASVVCLLNNFYPREAKVQWKVDNALQSGNSQESVTEQDSKDSTYSLSSTLTLSKADYEKHKVYACEVTHQGLSSPVTKSFNRGEC
notes: EU numbering; copies: 2 + 2
B3: IgG1-F13 (antibody)
heavy: QVQLQESGPGLVKPSETLSLTCAVSGHSISHDHAWSWVRQPPGEGLEWIGFISYSGITNYNPSLQGRVTISRDNSKNTLYLQMNSLRAEDTAVYYCARSLARTTAMDYWGEGTLVTVSS[here human IgG1 constant region with M252W N434Y (EU numbers) without letters]
light: DIQMTQSPSSLSASVGDRVTITCRASQDISSYLNWYQQKPGKAPKLLIYYTSRLHSGVPSRFSGSGSGTDFTFTISSLQPEDIATYYCQQGNTLPYTFGQGTKVEIKRTVAAPSVFIFPPSDEQLKSGTASVVCLLNNFYPREAKVQWKVDNALQSGNSQESVTEQDSKDSTYSLSSTLTLSKADYEKHKVYACEVTHQGLSSPVTKSFNRGEC
notes: EU numbering; copies: 2 + 2
B4: IgG1-F19 (antibody)
heavy: QVQLQESGPGLVKPSETLSLTCAVSGHSISHDHAWSWVRQPPGEGLEWIGFISYSGITNYNPSLQGRVTISRDNSKNTLYLQMNSLRAEDTAVYYCARSLARTTAMDYWGEGTLVTVSS[here human IgG1 constant region with P257L N434Y (EU numbers) without letters]
light: DIQMTQSPSSLSASVGDRVTITCRASQDISSYLNWYQQKPGKAPKLLIYYTSRLHSGVPSRFSGSGSGTDFTFTISSLQPEDIATYYCQQGNTLPYTFGQGTKVEIKRTVAAPSVFIFPPSDEQLKSGTASVVCLLNNFYPREAKVQWKVDNALQSGNSQESVTEQDSKDSTYSLSSTLTLSKADYEKHKVYACEVTHQGLSSPVTKSFNRGEC
notes: EU numbering; copies: 2 + 2
B5: IgG1-F32 (antibody)
heavy: QVQLQESGPGLVKPSETLSLTCAVSGHSISHDHAWSWVRQPPGEGLEWIGFISYSGITNYNPSLQGRVTISRDNSKNTLYLQMNSLRAEDTAVYYCARSLARTTAMDYWGEGTLVTVSS[here human IgG1 constant region with S254T N434W (EU numbers) without letters]
light: DIQMTQSPSSLSASVGDRVTITCRASQDISSYLNWYQQKPGKAPKLLIYYTSRLHSGVPSRFSGSGSGTDFTFTISSLQPEDIATYYCQQGNTLPYTFGQGTKVEIKRTVAAPSVFIFPPSDEQLKSGTASVVCLLNNFYPREAKVQWKVDNALQSGNSQESVTEQDSKDSTYSLSSTLTLSKADYEKHKVYACEVTHQGLSSPVTKSFNRGEC
notes: EU numbering; copies: 2 + 2
B6: IgG1-F27 (antibody)
heavy: QVQLQESGPGLVKPSETLSLTCAVSGHSISHDHAWSWVRQPPGEGLEWIGFISYSGITNYNPSLQGRVTISRDNSKNTLYLQMNSLRAEDTAVYYCARSLARTTAMDYWGEGTLVTVSS[here human IgG1 constant region with G237M (EU numbers) without letters]
light: DIQMTQSPSSLSASVGDRVTITCRASQDISSYLNWYQQKPGKAPKLLIYYTSRLHSGVPSRFSGSGSGTDFTFTISSLQPEDIATYYCQQGNTLPYTFGQGTKVEIKRTVAAPSVFIFPPSDEQLKSGTASVVCLLNNFYPREAKVQWKVDNALQSGNSQESVTEQDSKDSTYSLSSTLTLSKADYEKHKVYACEVTHQGLSSPVTKSFNRGEC
notes: EU numbering; copies: 2 + 2
B7: IgG1-F33 (antibody)
heavy: QVQLQESGPGLVKPSETLSLTCAVSGHSISHDHAWSWVRQPPGEGLEWIGFISYSGITNYNPSLQGRVTISRDNSKNTLYLQMNSLRAEDTAVYYCARSLARTTAMDYWGEGTLVTVSS[here human IgG1 constant region with S254T N434Y (EU numbers) without letters]
light: DIQMTQSPSSLSASVGDRVTITCRASQDISSYLNWYQQKPGKAPKLLIYYTSRLHSGVPSRFSGSGSGTDFTFTISSLQPEDIATYYCQQGNTLPYTFGQGTKVEIKRTVAAPSVFIFPPSDEQLKSGTASVVCLLNNFYPREAKVQWKVDNALQSGNSQESVTEQDSKDSTYSLSSTLTLSKADYEKHKVYACEVTHQGLSSPVTKSFNRGEC
notes: EU numbering; copies: 2 + 2
B8: IgG1-F31 (antibody)
heavy: QVQLQESGPGLVKPSETLSLTCAVSGHSISHDHAWSWVRQPPGEGLEWIGFISYSGITNYNPSLQGRVTISRDNSKNTLYLQMNSLRAEDTAVYYCARSLARTTAMDYWGEGTLVTVSS[here human IgG1 constant region with G237M V308F (EU numbers) without letters]
light: DIQMTQSPSSLSASVGDRVTITCRASQDISSYLNWYQQKPGKAPKLLIYYTSRLHSGVPSRFSGSGSGTDFTFTISSLQPEDIATYYCQQGNTLPYTFGQGTKVEIKRTVAAPSVFIFPPSDEQLKSGTASVVCLLNNFYPREAKVQWKVDNALQSGNSQESVTEQDSKDSTYSLSSTLTLSKADYEKHKVYACEVTHQGLSSPVTKSFNRGEC
notes: EU numbering; copies: 2 + 2
B9: IgG1-F20 (antibody)
heavy: QVQLQESGPGLVKPSETLSLTCAVSGHSISHDHAWSWVRQPPGEGLEWIGFISYSGITNYNPSLQGRVTISRDNSKNTLYLQMNSLRAEDTAVYYCARSLARTTAMDYWGEGTLVTVSS[here human IgG1 constant region with V308F N434Y (EU numbers) without letters]
light: DIQMTQSPSSLSASVGDRVTITCRASQDISSYLNWYQQKPGKAPKLLIYYTSRLHSGVPSRFSGSGSGTDFTFTISSLQPEDIATYYCQQGNTLPYTFGQGTKVEIKRTVAAPSVFIFPPSDEQLKSGTASVVCLLNNFYPREAKVQWKVDNALQSGNSQESVTEQDSKDSTYSLSSTLTLSKADYEKHKVYACEVTHQGLSSPVTKSFNRGEC
notes: copies: 2 + 2

The experiment concerns the target T1, human FcRn (soluble human FcRn complexed with β2-microglobulin) (human, UniProt P61769 part only, limits assumed).
T1 construct: also called hFcRn
Nature of the experiment: SPR, pH 7.0.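 Note: antibodies captured on a Protein L sensor chip with human FcRn injected as analyte, KD calculated from fitted association and dissociation rate constants.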 Background: Surface plasmon resonance follows binding to a sensor surface in real time, without labels.
B1 came in with a Kd of 170 nM.

Molecule B2 came in with a Kd of 1000 nM. Against the preceding molecule, the Kd is about 5.9-fold higher.

B3 returned an equilibrium dissociation constant (Kd) of 320 nM. This Kd is about 3.1-fold lower than that of the molecule before.

In turn, B4 had a Kd of 460 nM.

As to B5, the affinity, expressed as Kd, was 800 nM. Compared with the last molecule, the Kd is about 1.7-fold higher.

Molecule B6 displayed a dissociation constant (Kd) of 7400 nM.

As for B7, the Kd was 2300 nM. Against the preceding molecule, the Kd is about 3.2-fold lower.

On to B8, for which binding was put at a Kd of 2800 nM.

Regarding B9, the Kd stood at 460 nM.
